Variants at the floor of the assay are shown more often than the library holds them.
B1: TPR 5TU (parent)
chain: GGAUCUUCUCGAUCUAACAAAAAAGACAAAUCUGCCACAAAGCUUGAGAGCAUCUUCGGAUGCAGAGGCGGCAGCCUUCGGUGGCGCGAUAGCGCCAACGUUCUCAACUAUGACACGCAAAACGCGUGCUCCGUUGAAUGGAGUUUAUCAUG

Variants of: B1
Assay: polymerase ribozyme fitness, log enrichment relative to wild type (log ratio); higher = more active; in vitro selection for triplet polymerase activity
Procedure, shortened: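 After PCR construction and transcription, each subunit's mutant library from a heterodimeric triplet polymerase ribozyme was annealed with a biotinylated primer, the partner subunit and triplets. Incubation was frozen, at −7 °C, and extended constructs were gel-excised, bound to streptavidin beads and amplified by RT-PCR, in one selection round done in triplicate. Fitness is the logarithm of a genotype's enrichment divided by that of the wild type, from inverse-variance-weighted replicate averages of Illumina-sequenced inputs and outputs. The base of the logarithm is 2, and genotypes needed ≥10 input reads and ≥1 read per output.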

Row | Variant | polymerase ribozyme fitness (log ratio)
1 | A40C U44A G59A C93A U109A | ≤ -4.2
2 | A40U U56A C85G C114G | -3.79
3 | A40C C95U U109A A113G | ≤ -4.2
4 | A40C G48U C79U C93U C103G | ≤ -4.2
5 | A41C G42C A47G G68C C75G A106G A107G | ≤ -4.2
6 | A40C U55G C63U C93U | -0.65
7 | A40G U56G C85A C103A U146G | ≤ -4.2
8 | A40U C57U A89C C99G A119G | -1.22
9 | A40G G50A G58A | ≤ -4.2
10 | A40U G86A G141A | -1.06
11 | A40C U44A U45G U77A | ≤ -4.2
12 | A40U C99U G117C | -0.515
13 | A40G A97G | -1.8
14 | A41C G65A C85A A98U G117C G152U | ≤ -4.2
15 | A41C A52C A89U A91C G92A A115C | ≤ -4.2
16 | A40G A52U A91C C108U G143C U148A | ≤ -4.2
17 | A41C C51U | -0.722
18 | A40G U53C A98U A150C | ≤ -4.2
19 | A40U C85U | -0.107
20 | A40C C85U | -0.549
21 | A41C C79G | ≤ -4.2

Row | Variant | polymerase ribozyme fitness (log ratio)
22 | A40C C125A | -0.0259
23 | A41C C72U G92C G126U G140A | ≤ -4.2
24 | A40U G68C G124U C129G U135C C149G | ≤ -4.2
25 | A40U C95U G143U | ≤ -4.2
26 | A40C U55A A107G A142G | ≤ -4.2
27 | A40C U55G C85U | 0.238
28 | A40U A64G C93A A98G A107C U130G | ≤ -4.2
29 | A41C A49U U61A G70A U127A | ≤ -4.2
30 | A40C U109C C116U C131U A147U | -2.36
31 | A40G C93U A106G C118U | -3.47
32 | A40U G88C U101G | ≤ -4.2
33 | A40G G59U C75A G88C | ≤ -4.2
34 | A40G G88A G94C C99A A122C G128A G143A | ≤ -4.2
35 | A40U C43U C96G U130A U144A | ≤ -4.2
36 | A41C C43U U45A G50C C93U C103A G133U | ≤ -4.2
37 | A41C G74C A97U U111G G117A G152A | ≤ -4.2
38 | A40G C75U G94C U130G C131A | ≤ -4.2
39 | A41C G46A U90A A150G | ≤ -4.2
40 | A40U U56A | -0.0589
41 | A40C G50U C69G C116U | -3.24
42 | A41C G74A A97C A150U | ≤ -4.2

Row | Variant | polymerase ribozyme fitness (log ratio)
43 | A40U C57U U61A U82G A98C A106U C116U A121U C132U A138C | ≤ -4.2
44 | A40C G59C C69U C99U A107U | ≤ -4.2
45 | A40U G84U C85G A89U G126U | ≤ -4.2
46 | A40G C54U A64C C72G A89U | ≤ -4.2
47 | A41C A73C C87A A115U | ≤ -4.2
48 | A41C C79U G94U G100A C125A | -2.23
49 | A40U U53A G81U G84A C116A G140A G143A | ≤ -4.2
50 | A40C U55G G84C C96U C103U C118U | -3.51
51 | A40G G42U G74C | ≤ -4.2
52 | A40U G92C A147C | -0.761
53 | A40G U53G A73G G81U G94A | ≤ -4.2
54 | A40U G48C A52U G68C U90G C93A A120G C132U U146A | ≤ -4.2
55 | A40G G100C C103A | ≤ -4.2
56 | A40C G67C G70A C93G | ≤ -4.2
57 | A40C G59C C63A G65U C87A C95U C125A G126U | ≤ -4.2
58 | A41C A52C C63U G65U G86U G143C | ≤ -4.2
59 | A40C U45A C93A | ≤ -4.2
60 | A40U G67C A91U U111A G117C A119U G141A | ≤ -4.2
61 | A40C G48C G81U C85A | -1.52
62 | A40G C51U A60C U77G U78A G83A U135G | ≤ -4.2
63 | A40G G48U G58U C76A | ≤ -4.2

Row | Variant | polymerase ribozyme fitness (log ratio)
64 | A41C G59A G94A A119C | -1.52
65 | A41C A91C | ≤ -4.2
66 | A41C G68C | ≤ -4.2
67 | A40G C75U A89C U148G | ≤ -4.2
68 | A40C U109C | -3.47
69 | A41C A66G C108G | ≤ -4.2
70 | A40U G42C U53C G84U A89C | ≤ -4.2
71 | A40U U55G C96G | -0.541
72 | A40G G58C C79G C87U G136U | ≤ -4.2
73 | A40C C96U C114U A142U | ≤ -4.2
74 | A41C C54A U56A A73U A89U U101G A115C C129G U134A | ≤ -4.2
75 | A40U G62U C72G G80C U82C A138U | ≤ -4.2
76 | A41C G48A | -1.3
77 | A40C C87U G117C | -0.313
78 | A40G U55A C76G G81A G86U C149U | ≤ -4.2
79 | A40U G94A G126A | -0.19
80 | A40C G83C U90A C95G C149G | ≤ -4.2
81 | A40G G70U A73C G94C | ≤ -4.2
82 | A41C A89G C96G U101C U111A | ≤ -4.2
83 | A40U U130A | -3.96
